Data from the supplement of paper PMC8728848.
The list shows a part of the results.

What was measured:
Test in all cases: glycan array binding signal (z-score within array); higher = stronger binding
Details in all cases: glycan notation: IUPAC condensed, linker removed
[1] = biological target: Fuc(a1-2)[Gal(a1-3)]Gal(b1-4)GlcNAc(b1-2)Man(a1-3)[Fuc(a1-2)[Gal(a1-3)]Gal(b1-4)GlcNAc(b1-2)Man(a1-6)]Man(b1-4)GlcNAc(b1-4)[Fuc(a1-6)]GlcNAc
How it was run: (§1)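 The binding signal is a Z-score computed within each array. Data were drawn from 3228 arrays in the Consortium for Functional Glycomics database, restricted to those with a known protein sequence. Scores were averaged over arrays of the same protein sequence at different concentrations or buffers, and over linkers, and negative values can be taken as non-binding.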

[2] = biological target: Fuc(a1-2)[Gal(a1-3)]Gal(b1-4)GlcNAc(b1-3)GalNAc
How it was run: as §1

[3] = biological target: Fuc(a1-2)[Gal(a1-3)]Gal(b1-4)GlcNAc(b1-3)[Fuc(a1-2)[Gal(a1-3)]Gal(b1-4)GlcNAc(b1-6)]GalNAc
How it was run: as §1

[4] = biological target: Fuc(a1-2)[Gal(a1-3)]Gal(b1-4)GlcNAc(b1-6)GalNAc
How it was run: as §1

[5] = biological target: Fuc(a1-2)[Gal(a1-3)]Gal(b1-4)[Fuc(a1-3)]Glc
How it was run: as §1

[6] = biological target: Fuc(a1-2)[Gal(a1-3)]Gal(b1-4)[Fuc(a1-3)]GlcNAc
How it was run: as §1

[7] = biological target: Fuc(a1-2)[Gal(a1-3)]Gal(b1-4)[Fuc(a1-3)]GlcNAc(b1-3)GalNAc
How it was run: as §1

[8] = biological target: Fuc(a1-2)[Gal(a1-4)]Gal(b1-4)GlcNAc
How it was run: as §1

[9] = biological target: Fuc(a1-2)[GalNAc(a1-3)]Gal
How it was run: as §1

[10] = biological target: Fuc(a1-2)[GalNAc(a1-3)]Gal(b1-3)GalNAc(a1-3)[Fuc(a1-2)]Gal(b1-4)GlcNAc
How it was run: as §1

[11] = biological target: Fuc(a1-2)[GalNAc(a1-3)]Gal(b1-3)GalNAc(b1-3)Gal(a1-4)Gal(b1-4)Glc
How it was run: as §1

[12] = biological target: Fuc(a1-2)[GalNAc(a1-3)]Gal(b1-3)GlcNAc
How it was run: as §1

[13] = biological target: Fuc(a1-2)[GalNAc(a1-3)]Gal(b1-3)GlcNAc(b1-2)Man(a1-3)[Fuc(a1-2)[GalNAc(a1-3)]Gal(b1-3)GlcNAc(b1-2)Man(a1-6)]Man(b1-4)GlcNAc(b1-4)GlcNAc
How it was run: as §1

[14] = biological target: Fuc(a1-2)[GalNAc(a1-3)]Gal(b1-3)GlcNAc(b1-2)Man(a1-3)[Fuc(a1-2)[GalNAc(a1-3)]Gal(b1-3)GlcNAc(b1-2)Man(a1-6)]Man(b1-4)GlcNAc(b1-4)[Fuc(a1-6)]GlcNAc
How it was run: as §1

[15] = biological target: Fuc(a1-2)[GalNAc(a1-3)]Gal(b1-3)GlcNAc(b1-3)GalNAc
How it was run: as §1

[16] = biological target: Fuc(a1-2)[GalNAc(a1-3)]Gal(b1-3)GlcNAc(b1-6)GalNAc
How it was run: as §1

[17] = biological target: Fuc(a1-2)[GalNAc(a1-3)]Gal(b1-4)Glc
How it was run: as §1

[18] = biological target: Fuc(a1-2)[GalNAc(a1-3)]Gal(b1-4)GlcNAc
How it was run: as §1

[19] = biological target: Fuc(a1-2)[GalNAc(a1-3)]Gal(b1-4)GlcNAc(b1-2)Man
How it was run: as §1

[20] = biological target: Fuc(a1-2)[GalNAc(a1-3)]Gal(b1-4)GlcNAc(b1-2)Man(a1-3)[Fuc(a1-2)[GalNAc(a1-3)]Gal(b1-4)GlcNAc(b1-2)Man(a1-6)]Man(b1-4)GlcNAc(b1-4)GlcNAc
How it was run: as §1

[21] = biological target: Fuc(a1-2)[GalNAc(a1-3)]Gal(b1-4)GlcNAc(b1-2)Man(a1-3)[Fuc(a1-2)[GalNAc(a1-3)]Gal(b1-4)GlcNAc(b1-2)Man(a1-6)]Man(b1-4)GlcNAc(b1-4)[Fuc(a1-6)]GlcNAc
How it was run: as §1

[22] = biological target: Fuc(a1-2)[GalNAc(a1-3)]Gal(b1-4)GlcNAc(b1-3)Gal(b1-4)GlcNAc
How it was run: as §1

[23] = biological target: Fuc(a1-2)[GalNAc(a1-3)]Gal(b1-4)GlcNAc(b1-3)Gal(b1-4)GlcNAc(b1-3)Gal(b1-4)GlcNAc
How it was run: as §1

[24] = biological target: Fuc(a1-2)[GalNAc(a1-3)]Gal(b1-4)GlcNAc(b1-3)GalNAc
How it was run: as §1

[25] = biological target: Fuc(a1-2)[GalNAc(a1-3)]Gal(b1-4)GlcNAc(b1-3)[Fuc(a1-2)[GalNAc(a1-3)]Gal(b1-4)GlcNAc(b1-6)]GalNAc
How it was run: as §1

[26] = biological target: Fuc(a1-2)[GalNAc(a1-3)]Gal(b1-4)GlcNAc(b1-6)GalNAc
How it was run: as §1

[27] = biological target: Fuc(a1-2)[GalNAc(a1-3)]Gal(b1-4)[Fuc(a1-3)]GlcNAc
How it was run: as §1

[28] = biological target: Fuc(a1-2)[GalNAc(a1-3)]Gal(b1-4)[Fuc(a1-3)]GlcNAc(b1-3)GalNAc
How it was run: as §1

[29] = biological target: Fuc(a1-2)[GalNAc(a1-4)]Gal(b1-4)GlcNAc
How it was run: as §1

[30] = biological target: Fuc(a1-2)[GalNAc(b1-3)]Gal
How it was run: as §1

Fuc(a1-3)GlcNAc = biological target: Fuc(a1-3)GlcNAc
How it was run: as §1

[31] = biological target: Fuc(a1-3)[Gal(b1-4)]Glc6S
How it was run: as §1

[32] = biological target: Fuc(a1-3)[Gal(b1-4)]GlcNAc
How it was run: as §1

[33] = biological target: Fuc(a1-3)[Gal(b1-4)]GlcNAc(b1-2)Man
How it was run: as §1

[34] = biological target: Fuc(a1-3)[Gal(b1-4)]GlcNAc(b1-2)Man(a1-3)[Fuc(a1-3)[Gal(b1-4)]GlcNAc(b1-2)Man(a1-6)]Man(b1-4)GlcNAc(b1-4)GlcNAc
How it was run: as §1

[35] = biological target: Fuc(a1-3)[Gal(b1-4)]GlcNAc(b1-2)Man(a1-3)[Fuc(a1-3)[Gal(b1-4)]GlcNAc(b1-2)Man(a1-6)]Man(b1-4)GlcNAc(b1-4)[Fuc(a1-6)]GlcNAc
How it was run: as §1

[36] = biological target: Fuc(a1-3)[Gal(b1-4)]GlcNAc(b1-3)Gal(b1-3)[Fuc(a1-4)]GlcNAc
How it was run: as §1

[37] = biological target: Fuc(a1-3)[Gal(b1-4)]GlcNAc(b1-3)Gal(b1-4)[Fuc(a1-3)]GlcNAc
How it was run: as §1

[38] = biological target: Fuc(a1-3)[Gal(b1-4)]GlcNAc(b1-3)Gal(b1-4)[Fuc(a1-3)]GlcNAc(b1-3)Gal(b1-4)[Fuc(a1-3)]GlcNAc
How it was run: as §1

[39] = biological target: Fuc(a1-3)[Gal(b1-4)]GlcNAc(b1-3)GalNAc
How it was run: as §1

[40] = biological target: Fuc(a1-3)[Gal(b1-4)]GlcNAc(b1-6)GalNAc
How it was run: as §1

[41] = biological target: Fuc(a1-3)[Gal(b1-4)]GlcNAc(b1-6)[Gal(b1-3)GlcNAc(b1-3)]Gal(b1-4)Glc
How it was run: as §1

[42] = biological target: Fuc(a1-3)[Gal(b1-4)]GlcNAc6S
How it was run: as §1

[43] = biological target: Fuc(a1-3)[Gal3S(b1-4)]Glc
How it was run: as §1

[44] = biological target: Fuc(a1-3)[Gal3S(b1-4)]GlcNAc
How it was run: as §1

[45] = biological target: Fuc(a1-3)[Gal3S(b1-4)]GlcNAc6S
How it was run: as §1

[46] = biological target: Fuc(a1-3)[GalNAc(b1-4)]GlcNAc
How it was run: as §1

[47] = biological target: Fuc(a1-3)[GalNAc(b1-4)]GlcNAc6S
How it was run: as §1

Fuc(a1-4)GlcNAc = biological target: Fuc(a1-4)GlcNAc
How it was run: as §1

Fuc(b1-3)GlcNAc = biological target: Fuc(b1-3)GlcNAc
How it was run: as §1

Gal(a1-2)Gal = biological target: Gal(a1-2)Gal
How it was run: as §1

Gal(a1-3)Gal = biological target: Gal(a1-3)Gal
How it was run: as §1

Gal(a1-3)Gal(b1-3)GlcNAc = biological target: Gal(a1-3)Gal(b1-3)GlcNAc
How it was run: as §1

[48] = biological target: Gal(a1-3)Gal(b1-3)GlcNAc(b1-2)Man
How it was run: as §1

[49] = biological target: Gal(a1-3)Gal(b1-3)GlcNAc(b1-2)Man(a1-3)[Gal(a1-3)Gal(b1-3)GlcNAc(b1-2)Man(a1-6)]Man(b1-4)GlcNAc(b1-4)GlcNAc
How it was run: as §1

[50] = biological target: Gal(a1-3)Gal(b1-3)GlcNAc(b1-3)GalNAc
How it was run: as §1

[51] = biological target: Gal(a1-3)Gal(b1-3)GlcNAc(b1-6)GalNAc
How it was run: as §1

[52] = biological target: Gal(a1-3)Gal(b1-3)[Fuc(a1-4)]GlcNAc(b1-2)Man(a1-3)[Gal(a1-3)Gal(b1-3)[Fuc(a1-4)]GlcNAc(b1-2)Man(a1-6)]Man(b1-4)GlcNAc(b1-4)GlcNAc
How it was run: as §1

Gal(a1-3)Gal(b1-4)Glc = biological target: Gal(a1-3)Gal(b1-4)Glc
How it was run: as §1

Gal(a1-3)Gal(b1-4)GlcNAc = biological target: Gal(a1-3)Gal(b1-4)GlcNAc
How it was run: as §1

B1: FimA-N3 (Actinomyces oris) (protein)
chain: MHHHHHHSSGVDLGTENLYFQSNAGLQGAQFQLYKAKNAYANTCSNEKEGAPIAINGQTTLTTDAQGAIDIKGLFISDSIDGADRDNQVNAMERCYVLVETKAPAGYVLPAGNGAATPVKVKAGEETTDN
glycan array binding signal (z-score) [1]: -0.169 | glycan array binding signal (z-score) [2]: -0.486 | glycan array binding signal (z-score) [3]: -0.597 | glycan array binding signal (z-score) [4]: -0.294 | glycan array binding signal (z-score) [5]: -0.378 | glycan array binding signal (z-score) [6]: -0.515 | glycan array binding signal (z-score) [7]: 0.505 | glycan array binding signal (z-score) [8]: 0.009 | glycan array binding signal (z-score) [9]: -0.241 | glycan array binding signal (z-score) [10]: -0.107 | glycan array binding signal (z-score) [11]: -0.661 | glycan array binding signal (z-score) [12]: -0.552 | glycan array binding signal (z-score) [13]: -0.261 | glycan array binding signal (z-score) [14]: -0.333 | glycan array binding signal (z-score) [15]: -0.208 | glycan array binding signal (z-score) [16]: -0.415 | glycan array binding signal (z-score) [17]: -0.493 | glycan array binding signal (z-score) [18]: -0.456 | glycan array binding signal (z-score) [19]: -0.025 | glycan array binding signal (z-score) [20]: -0.372 | glycan array binding signal (z-score) [21]: 0.123 | glycan array binding signal (z-score) [22]: -0.117 | glycan array binding signal (z-score) [23]: -0.285 | glycan array binding signal (z-score) [24]: -0.047 | glycan array binding signal (z-score) [25]: -0.424 | glycan array binding signal (z-score) [26]: -0.16 | glycan array binding signal (z-score) [27]: 0.984 | glycan array binding signal (z-score) [28]: -0.111 | glycan array binding signal (z-score) [29]: -0.474 | glycan array binding signal (z-score) [30]: -0.341 | glycan array binding signal (z-score) (Fuc(a1-3)GlcNAc): -0.15 | glycan array binding signal (z-score) [31]: 0.088 | glycan array binding signal (z-score) [32]: -0.369 | glycan array binding signal (z-score) [33]: -0.667 | glycan array binding signal (z-score) [34]: -0.24 | glycan array binding signal (z-score) [35]: -0.425 | glycan array binding signal (z-score) [36]: -0.373 | glycan array binding signal (z-score) [37]: -0.338 | glycan array binding signal (z-score) [38]: -0.114 | glycan array binding signal (z-score) [39]: 0.18 | glycan array binding signal (z-score) [40]: -0.189 | glycan array binding signal (z-score) [41]: -0.182 | glycan array binding signal (z-score) [42]: -0.332 | glycan array binding signal (z-score) [43]: -0.479 | glycan array binding signal (z-score) [44]: -0.417 | glycan array binding signal (z-score) [45]: 0.377 | glycan array binding signal (z-score) [46]: 0.059 | glycan array binding signal (z-score) [47]: 4.08 | glycan array binding signal (z-score) (Fuc(a1-4)GlcNAc): -0.103 | glycan array binding signal (z-score) (Fuc(b1-3)GlcNAc): -0.128 | glycan array binding signal (z-score) (Gal(a1-2)Gal): -0.164 | glycan array binding signal (z-score) (Gal(a1-3)Gal): -0.131 | glycan array binding signal (z-score) (Gal(a1-3)Gal(b1-3)GlcNAc): -0.271 | glycan array binding signal (z-score) [48]: -0.429 | glycan array binding signal (z-score) [49]: -0.119 | glycan array binding signal (z-score) [50]: -0.493 | glycan array binding signal (z-score) [51]: -0.12 | glycan array binding signal (z-score) [52]: -0.191 | glycan array binding signal (z-score) (Gal(a1-3)Gal(b1-4)Glc): -0.324 | glycan array binding signal (z-score) (Gal(a1-3)Gal(b1-4)GlcNAc): -0.354
